{"source": "PubChem BioAssay AID504332", "about": "(National Center for Advancing Translational Sciences (NCATS), 2011)", "note": "The whole screen tested about 350,000 compounds, of which about 31,000 (8.9%) were called active. This list was built around the results that the source calls inconclusive (neither active nor inactive); the mix of calls is not that of the screen. Calls come from the whole dose curve; as a rule, active = well fitted inhibition curve with a large enough effect; inconclusive = small, poorly fitted or top-dose-only effect; inactive = no such curve, though single readings can be large or run the other way. A potency beside an inconclusive call is a rough fit, not a confirmed value. % is set by controls: 0 for no effect and ±100 for the full control effect; potency is the fitted concentration of half-maximal effect; tags give direction and shape of the fitted curve."}
{"target": "Histone-lysine N-methyltransferase EHMT2 (Homo sapiens) (UniProt Q96KQ7)", "sequence (Q96KQ7 whole entry, looked up)": "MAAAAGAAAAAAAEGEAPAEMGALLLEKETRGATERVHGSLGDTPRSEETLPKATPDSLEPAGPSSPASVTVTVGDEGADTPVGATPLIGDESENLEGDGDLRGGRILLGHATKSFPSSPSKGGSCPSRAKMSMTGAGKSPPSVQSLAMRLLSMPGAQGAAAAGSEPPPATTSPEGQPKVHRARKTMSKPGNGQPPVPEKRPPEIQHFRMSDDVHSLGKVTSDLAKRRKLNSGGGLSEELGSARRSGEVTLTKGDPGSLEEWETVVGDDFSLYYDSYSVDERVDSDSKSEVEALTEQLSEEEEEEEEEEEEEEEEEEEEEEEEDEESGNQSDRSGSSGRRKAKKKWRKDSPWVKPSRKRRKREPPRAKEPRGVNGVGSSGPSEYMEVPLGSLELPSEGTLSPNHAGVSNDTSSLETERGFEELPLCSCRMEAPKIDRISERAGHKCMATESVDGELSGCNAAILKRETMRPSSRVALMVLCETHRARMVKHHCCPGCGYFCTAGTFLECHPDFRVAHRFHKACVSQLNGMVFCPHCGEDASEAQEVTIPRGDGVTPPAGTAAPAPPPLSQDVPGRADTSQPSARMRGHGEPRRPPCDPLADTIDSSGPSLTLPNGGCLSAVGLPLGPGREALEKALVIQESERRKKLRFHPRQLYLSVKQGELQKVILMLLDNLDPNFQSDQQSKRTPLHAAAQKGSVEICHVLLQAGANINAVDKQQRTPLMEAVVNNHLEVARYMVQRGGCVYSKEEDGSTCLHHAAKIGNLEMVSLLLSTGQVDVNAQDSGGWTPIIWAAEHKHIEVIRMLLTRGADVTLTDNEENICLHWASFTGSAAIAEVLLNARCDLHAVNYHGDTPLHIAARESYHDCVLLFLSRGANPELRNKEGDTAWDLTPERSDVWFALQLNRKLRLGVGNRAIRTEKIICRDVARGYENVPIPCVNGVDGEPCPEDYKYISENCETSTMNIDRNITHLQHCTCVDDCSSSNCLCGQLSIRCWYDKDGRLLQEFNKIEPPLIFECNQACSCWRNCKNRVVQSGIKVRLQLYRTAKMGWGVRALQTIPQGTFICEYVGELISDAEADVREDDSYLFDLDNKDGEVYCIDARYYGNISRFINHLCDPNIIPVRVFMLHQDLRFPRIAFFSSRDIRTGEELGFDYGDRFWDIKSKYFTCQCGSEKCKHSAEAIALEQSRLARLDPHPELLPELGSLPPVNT", "test": "qHTS Assay for Inhibitors of Histone Lysine Methyltransferase G9a; note: nearly all actives have a fitted effect of over 75% in size", "details": "G9a H3K9 monomethylation, AlphaScreen, 2 h; activity, negative = inhibition: at 59 µM (top of the series) unless noted", "procedure,_shortened": "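Signal arises when biotinylated H3K9 peptide, once monomethylated, bridges streptavidin donor and antibody-captured acceptor beads. Enzyme at 20 nM was preincubated 15 min with test compounds; peptide 500 nM and SAM 20 uM then reacted for 2 h.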"}
{"smiles": "C[C@@H]1NC(=O)N(c2ccc(F)cc2)C1=O", "activity, negative = inhibition": "inactive: -14.5% [at 102 µM]"}
{"smiles": "Cc1ccc(OCc2nnc(SC3CCc4ccccc4C3=O)n2C)cc1", "note": "(stereo unspecified)", "Potency": "inconclusive: 10 µM [inhibitor, partial curve, poor fit]"}
{"smiles": "CC1CCCN(C(=O)COC(=O)c2cc([N+](=O)[O-])ccc2N2CCOCC2)C1", "note": "(stereo unspecified)", "activity, negative = inhibition": "inconclusive: -59.5% [inhibitor] [at 2.33 µM]"}
{"smiles": "C/C(=N\\Nc1nc(C(=O)O)cs1)c1ccccc1", "Potency": "inconclusive: 39.8 µM [inhibitor, partial curve, poor fit]"}
{"smiles": "COc1ccc(OCC(=O)N2CCN(C(=O)c3ccc(OC)c(OC)c3)CC2)cc1", "Potency": "inconclusive: 0.158 µM [inhibitor, partial curve, poor fit]"}
{"smiles": "C/C(=C\\C(=O)c1ccc(C)o1)Nc1ccc2c(c1)OCO2", "activity, negative = inhibition": "inconclusive: -77.1% [inhibitor]"}
{"smiles": "Cc1cc(C)n(CC(=O)c2ccc(Cl)cc2)n1", "Potency": "inconclusive: 1 µM [inhibitor, full curve, poor fit]"}
{"smiles": "CCc1ccccc1NC(=S)N=Nc1c(O)n(C)c2ccc(S(=O)(=O)N3CCOCC3)cc12", "Potency": "inconclusive: 79.4 µM [inhibitor, single point]"}
{"smiles": "Cc1cc(C)nc(NC(=O)c2c(C(=O)O)noc2C)n1", "Potency": "inconclusive: 79.4 µM [inhibitor, single point]"}
{"smiles": "COc1cc(C(=O)N(C)CCOc2ccc(C)cc2)ccc1OC1CCN(C(C)=O)CC1", "activity, negative = inhibition": "inactive: -4.71% [at 102 µM]"}
{"smiles": "Cc1c(C(=O)NCCC2=CCCCC2)oc2ccc(S(=O)(=O)N3CCOCC3)cc12", "Potency": "inconclusive: 12.6 µM [inhibitor, partial curve, poor fit]"}
{"smiles": "CCN(N)C(=S)Nc1ccc(F)cc1", "Potency": "inconclusive: 17.8 µM [inhibitor, partial curve, poor fit]"}
{"smiles": "Nc1nnc2c(n1)CCCC2", "Potency": "inconclusive: 39.8 µM [inhibitor, single point]"}
{"smiles": "CCN(CC)c1ccc(/C=N/Nc2cccc(C)c2)c(O)c1", "Potency": "active: 1.41 µM"}
{"smiles": "CCn1c(CSCc2ccc(Cl)cc2)n[nH]c1=S", "Potency": "active: 3.16 µM"}
{"smiles": "COC(=O)COc1ccc(S(=O)(=O)N2CCN(c3ccccc3F)CC2)cc1C", "activity, negative = inhibition": "inactive: -2.76%"}
{"smiles": "COc1ccc(/C=C/C(=O)N2CCN(c3ccccn3)CC2)cc1OC", "activity, negative = inhibition": "inactive: 8.05% [at 102 µM]"}
{"smiles": "Oc1ccc(/C=N/Nc2ccc(C(F)(F)F)cn2)cc1O", "Potency": "inconclusive: 44.7 µM [inhibitor, partial curve]"}
{"smiles": "CC(C)C(=O)N(Cc1cc(=O)[nH]c2ccccc12)c1ccccc1", "Potency": "inconclusive: 89.1 µM [inhibitor, partial curve, poor fit]"}
{"smiles": "Cc1nc(SCC(=O)Nc2cc(S(=O)(=O)N3CCOCC3)ccc2Cl)nc(C)c1C", "Potency": "inconclusive: 12.6 µM [inhibitor, single point]"}
{"smiles": "Cc1cccc(N2C(=O)C3CCCN3C2=S)c1C", "note": "(stereo unspecified)", "Potency": "inconclusive: 39.8 µM [inhibitor, single point]"}
{"smiles": "COCc1[nH]c(=S)c(C#N)cc1C(=O)OC", "activity, negative = inhibition": "inactive: -137%"}
{"smiles": "Cc1cc(=O)oc2cc(NC(=O)C(CCCN=C(N)N)NC(=O)OCc3ccccc3)ccc12", "note": "(stereo unspecified)", "Potency": "inconclusive: 1.41 µM [inhibitor, full curve]"}
{"smiles": "Cc1ccc(C2C(C#N)=C(N)SC(N)=C2C#N)c(C)c1", "Potency": "inconclusive: 0.794 µM [inhibitor, full curve, poor fit]"}
{"smiles": "CCCCNC(=O)NNC(=O)c1ccoc1C", "Potency": "inconclusive: 35.5 µM [inhibitor, single point]"}
{"smiles": "COc1ccc(N2CCN(C(=O)c3[nH]c4ccc(OC)cc4c3C)CC2)cc1", "Potency": "active: 39.8 µM"}
{"smiles": "CCOc1ccc2c(c1)NC(c1ccc(OCC)c(OCC)c1)=NC(c1ccc(F)cc1)=N2", "Potency": "active: 11.2 µM"}
{"smiles": "COc1ccccc1Nc1nc(-c2sc(NC(=O)c3ccccc3)nc2C)cs1", "activity, negative = inhibition": "inconclusive: -52% [inhibitor]"}
{"smiles": "CN(C)c1ccc(C(=S)N2CCCCC2)cc1", "Potency": "inconclusive: 44.7 µM [inhibitor, partial curve]"}
{"smiles": "O=C(Nc1cccc(C(F)(F)F)c1)c1cccc(NS(=O)(=O)c2ccc(Br)c(C(=O)O)c2)c1", "Potency": "inconclusive: 89.1 µM [inhibitor, partial curve, poor fit]"}
{"smiles": "CCOc1ccccc1Nc1nnc(SCC(=O)NC(Cc2c[nH]c3ccccc23)C(=O)O)s1", "note": "(stereo unspecified)", "Potency": "active: 39.8 µM"}
{"smiles": "CCc1ccc(C(=O)c2cn(CC(=O)Nc3ccc4c(c3)OCO4)c3ccc(Cl)cc3c2=O)cc1", "activity, negative = inhibition": "inactive: -2.58%"}
{"smiles": "O=C1c2ccccc2C(=O)N1CCCCSc1nnc2c(Cl)cc(Cl)cn12", "Potency": "inconclusive: 89.1 µM [inhibitor, single point]"}
{"smiles": "CC1CCCC(NC(=O)COC(=O)Cc2cn3ccsc3n2)C1C", "note": "(stereo unspecified)", "Potency": "active: 50.1 µM"}
{"smiles": "COc1ccc(O)c(/C=N/N=C2/C(=O)Nc3ccccc32)c1", "Potency": "inconclusive: 39.8 µM [inhibitor, partial curve, poor fit]"}
{"smiles": "COc1ccc2ccccc2c1CNCCCN1CCOCC1", "activity, negative = inhibition": "inactive: -13.9% [at 102 µM]"}
{"smiles": "COc1cccc(C2CC(c3ccc(Cl)cc3)n3nc(N)nc3N2)c1", "note": "(stereo unspecified)", "activity, negative = inhibition": "inactive: -5.18% [at 102 µM]"}
{"smiles": "COc1ccc(OC)c(NS(=O)(=O)c2cccs2)c1", "Potency": "inconclusive: 20 µM [inhibitor, single point]"}
{"smiles": "CC(=O)c1sc(NS(=O)(=O)c2ccc(C)cc2)nc1-c1ccccc1", "Potency": "inconclusive: 89.1 µM [inhibitor, single point]"}
{"smiles": "CNC(=O)c1cc2c(-c3ccccc3)nn(C)c2s1", "activity, negative = inhibition": "inactive: 12.3% [at 102 µM]"}
{"smiles": "CCOc1ccccc1-c1nc2c(C(C)(C)C)nn(C)c2c(=O)[nH]1", "activity, negative = inhibition": "inactive: 5.36% [at 102 µM]"}
{"smiles": "CCOP(=O)(OCC)C(NC(=O)c1cccs1)C(F)(F)F", "note": "(stereo unspecified)", "activity, negative = inhibition": "inactive: -31.3% [at 102 µM]"}
{"smiles": "CC1CCN(C(=O)CSc2nnc3ccc(-c4cccnc4)nn23)CC1", "activity, negative = inhibition": "inactive: -22.2% [at 102 µM]"}
{"smiles": "CC[C@H](C)[C@@H]1NC(=O)c2cc([N+](=O)[O-])cc(F)c2NCCCC[C@@H](C(N)=O)NC(=O)[C@H](CC(N)=O)NC1=O", "Potency": "inconclusive: 89.1 µM [inhibitor, single point]"}
{"smiles": "O=C1COc2ccc(-c3csc(NCC4CCCO4)n3)cc2N1", "note": "(stereo unspecified)", "Potency": "inconclusive: 39.8 µM [inhibitor, single point]"}
{"smiles": "Cc1cccc(C)c1Nc1nnc(SCC(=O)Nc2ncc(C(F)(F)F)cc2Cl)s1", "Potency": "active: 2.24 µM"}
